From the supplement of paper PMC7125110
± gives the standard error. Variants at the floor of the assay are shown more often than the library holds them.

B1: glmS ribozyme (parent)
chain: AUAAAAGCGCCAGAACUACAGAAAUGUAGUUGACGAGGAGGAGGUUUAUCGAAUUUUCGGCGGAUGCCUCCAAA

How the values were obtained:
Conditions in all cases: with glucosamine-6-phosphate
glucosamine-6-phosphate [1] = variants of: B1; assay: self-cleavage kobs at 640 uM GlcN6P; higher = faster cleavage; RNA array
How it was run: (§1)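 Glucosamine-6-phosphate in HEPES/KCl/Mg(OAc)2 buffer, at 40 μM to 10 mM, was flowed over barcoded ribozyme variants transcribed in situ by E. coli RNA polymerase on sequenced MiSeq chips. Tracking was through a hybridised Cy3 probe at 37 °C. kobs, kcat and KM came from exponential decay fits and weighted Michaelis–Menten fits of normalised per-tile medians.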

glucosamine-6-phosphate [2] = variants of: B1; assay: self-cleavage kobs at 160 uM GlcN6P; higher = faster cleavage; RNA array
How it was run: as §1

glucosamine-6-phosphate [3] = variants of: B1; assay: self-cleavage kobs at 2500 uM GlcN6P; higher = faster cleavage; RNA array
How it was run: as §1

glucosamine-6-phosphate [4] = variants of: B1; assay: self-cleavage kobs at 10000 uM GlcN6P; higher = faster cleavage; RNA array
How it was run: as §1

Variant	self-cleavage kobs at 640 uM GlcN6P (glucosamine-6-phosphate [1]) [s⁻¹]	self-cleavage kobs at 160 uM GlcN6P (glucosamine-6-phosphate [2]) [s⁻¹]	self-cleavage kobs at 2500 uM GlcN6P (glucosamine-6-phosphate [3]) [s⁻¹]	self-cleavage kobs at 10000 uM GlcN6P (glucosamine-6-phosphate [4]) [s⁻¹]
AUAAAAGCGCCAGAACUACAGAAAUGUACUUGACGAGGAGGAGGCUUACCGAAUUUUCGGCGGAUGCCUCCAAA [G29C U45C U49C]	< 1e-05			
AUAAAAGCGCCAGAACUACAGAAAUGUAUUUGGCGAGGAGGAGGUUUAUCGAAUUUUCGUCCGAUGCCUCCAAA [G29U A33G G60U G62C]	< 1e-05			
AUAAAAGCGCCAGAACUACAGAAAUGUAUUUGACGAGGAGGAGGUUUGUCGAAUUUUCGGCGGAUGCCUCCAAA [G29U A48G]	< 1e-05			
AUAAAAGCGCCAGAACUACAGAAAUGUAUUUGACGAGGAGGAGGUUUAUCGAAUUUUCGGCGGUUGCCUCCAAA [G29U A64U]	< 1e-05	< 1e-05		
AUAAAAGCGCCAGAACUACAGAAAUGUAUUUUACGAGGAGGAGGUUUAUCGAAUUUUUGGCGGAUGACUCCAAA [G29U G32U C58U C67A]	3.68e-05 ± 1.8e-05		8.93e-05 ± 2.6e-05	
AUAAAAGCGCCAGAACUACAGAAAUGUAUUUGACGAGGAGUAGGUUUAUUGAAUUUUCGGCGGAUGCCUCCAAA [G29U G41U C50U]	< 1e-05			< 1e-05
AUAAAAGCGCCAGAACUACAGAAAUGUAUUUGACGAGGAGGACGUUAAUCGAAUUUUCGGCGAAUGCCUCCAAA [G29U G43C U47A G63A]	< 1e-05	< 1e-05	< 1e-05	
AUAAAAGCGCCAGAACUACAGAAAUGUAUUUGACGAGGAGGAGGUUUAGCGAAUUUUCGGCGCAUGCCUCCAAA [G29U U49G G63C]	< 1e-05			
AUAAAAGCGCCAGAACUACAGAAAUGUAUUUGACGAGGAGGAGGUUUAUCGAAUUUUCGGCGGAUGCCCCCAAA [G29U U69C]	0.000356 ± 9e-05	3.84e-05 ± 1.5e-05	0.000114 ± 3.1e-05	
AUAAAAGCGCCAGAACUACAGAAAUGUAGCUGACGAGGAGGAGGUUUAUCGAAUUUUUGGCGGAUGGCUCAAAA [U30C C58U C67G C71A]	0.000584 ± 0.00013	0.000188 ± 5.3e-05	0.000197 ± 4.3e-05	
AUAAAAGCGCCAGAACUACAGAAAUGUAGCUGACGAGGAGGAGGUUUAUCGAAUUUUCGGCGGAUGCCUGCAAA [U30C C70G]	6.49e-05 ± 1.1e-05	5.73e-05 ± 1.4e-05		
AUAAAAGCGCCAGAACUACAGAAAUGUAGCUGACGAGGAGGACGUUUAUCGAAUUUUCGGCGGAUGCCUCGAAA [U30C G43C C71G]	< 1e-05			
AUAAAAGCGCCAGAACUACAGAAAUGUAGGUGACGAGGUGGAGGUUUAUCGAAUUUUCGGCGGACGCCUCCAAA [U30G A39U U65C]	0.000103 ± 3.8e-05			0.000419 ± 6.3e-05
AUAAAAGCGCCAGAACUACAGAAAUGUAGGUGACGAGGAGAAGGUUUAUCGAAUCUUCGGCGUAUGCCUCCAAA [U30G G41A U55C G63U]	< 1e-05		< 1e-05	
AUAAAAGCGCCAGAACUACAGAAAUGUAGUAGACGAGGAGGCGGUUUAUCGAAUUUUCGGCGGAUGCCUGCAAA [U31A A42C C70G]	< 1e-05	< 1e-05		
AUAAAAGCGCCAGAACUACAGAAAUGUAGUAGACGAGGAGGAGGUUUAUCGAAUUUUCGGUGGAUGCCUGCAAA [U31A C61U C70G]	< 1e-05			
AUAAAAGCGCCAGAACUACAGAAAUGUAGUAGACGAGGAGGAGGUUUAUCGAAAUUUCGGCGGAUGCAUCCAAA [U31A U54A C68A]	6.98e-05 ± 2.6e-05			
AUAAAAGCGCCAGAACUACAGAAAUGUAGUCGACGAGGAGGAGGUUUAUCUAAUUUUCAGUGGAUGCCUCCAAA [U31C G51U G59A C61U]	< 1e-05			
AUAAAAGCGCCAGAACUACAGAAAUGUAGUCGACGAGGAGGAGGUUUAACGAAUUUUCGGCGGAUGCCUCCAAA [U31C U49A]	< 1e-05			

Variant	self-cleavage kobs at 640 uM GlcN6P (glucosamine-6-phosphate [1]) [s⁻¹]	self-cleavage kobs at 160 uM GlcN6P (glucosamine-6-phosphate [2]) [s⁻¹]	self-cleavage kobs at 2500 uM GlcN6P (glucosamine-6-phosphate [3]) [s⁻¹]	self-cleavage kobs at 10000 uM GlcN6P (glucosamine-6-phosphate [4]) [s⁻¹]
AUAAAAGCGCCAGAACUACAGAAAUGUAGUGGACGAGGAGGGCGUUUAUCGAAUUUUCGGCGGAUGCCUCCAAA [U31G A42G G43C]	< 1e-05	< 1e-05	< 1e-05	
AUAAAAGCGCCAGAACUACAGAAAUGUAGUGGACGAGGAGAAGGUGUAUCGAAUUUUCGGCGGAUGCCUCCAAA [U31G G41A U46G]	7.29e-05 ± 2.3e-05			
AUAAAAGCGCCAGAACUACAGAAAUGUAGUGGACGAGGAGCAGUUUUAUGGAAUUUUCGGCGGAUGCCUCCAAA [U31G G41C G44U C50G]	< 1e-05	< 1e-05	< 1e-05	
AUAAAAGCGCCAGAACUACAGAAAUGUAGUGGACGAGGAGUAGGUUUAUCGAAUUUUCGGCGGAUGCCUCCAAA [U31G G41U]	0.000154 ± 6.3e-05	6.71e-05 ± 1.8e-05	0.000806 ± 0.00017	0.000505 ± 0.0001
AUAAAAGCGCCAGAACUACAGAAAUGUAGUGGACGAGGAGGAGGUUUAUCGAAUCUUCGGCUGAUGCCUCCAAA [U31G U55C G62U]	< 1e-05			
AUAAAAGCGCCAGAACUACAGAAAUGUAGUUAACGAGGUGGAAGUUUAACGAAUUUUCGGCGGAUGCCUCCAAA [G32A A39U G43A U49A]	< 1e-05		< 1e-05	
AUAAAAGCGCCAGAACUACAGAAAUGUAGUUAACGAGGAGGAGGUUUAUCGAAUUUUCGGCGGAUGACUCCAAA [G32A C67A]	0.000168 ± 3.4e-05	5.05e-05 ± 1.6e-05	0.000586 ± 0.00011	0.000728 ± 8.2e-05
AUAAAAGCGCCAGAACUACAGAAAUGUAGUUAACGAGGAUGAGGUUUUUCGAAUUUUCGGCGGAUGCCUCCAAA [G32A G40U A48U]	< 1e-05			
AUAAAAGCGCCAGAACUACAGAAAUGUAGUUAACGAGGAGGAGUUUUUUCGAAUUUUCGGCGGAUGCCUGCAAA [G32A G44U A48U C70G]	< 1e-05		< 1e-05	
AUAAAAGCGCCAGAACUACAGAAAUGUAGUUAACGAGGAGGAGUUCUAUGGAAUUUUCGGCGGAUGCCUCCAAA [G32A G44U U46C C50G]	< 1e-05			
AUAAAAGCGCCAGAACUACAGAAAUGUAGUUAACGAGGAGGAGGUUUAUCCAAUUUUCGGCGGAUGCCUCCAAA [G32A G51C]	< 1e-05	< 1e-05	< 1e-05	
AUAAAAGCGCCAGAACUACAGAAAUGUAGUUAACGAGGAGGAGGUUUAGCGAAUUUUGGGCGUAUGCCGCCAAA [G32A U49G C58G G63U U69G]	0.000279 ± 9.2e-05		0.000153 ± 3.7e-05	
AUAAAAGCGCCAGAACUACAGAAAUGUAGUUCACGAGGAGGAGGUUUAUCGAAUUUUCGGCGGAUGCCUCCAAA [G32C]	2.26e-05 ± 1.4e-06		5.77e-05 ± 1.3e-06	0.000103 ± 1.4e-06
AUAAAAGCGCCAGAACUACAGAAAUGUAGUUCACGGGGAGGAGAUUUAUCGAAUUUUCGGCGGAGGCCUCCAAA [G32C A36G G44A U65G]	< 1e-05		< 1e-05	
AUAAAAGCGCCAGAACUACAGAAAUGUAGUUCACGAGGUGGAGGUUUAUCGAAUUUUCGUCGGAUGCCUCCAAA [G32C A39U G60U]	< 1e-05	< 1e-05	< 1e-05	
AUAAAAGCGCCAGAACUACAGAAAUGUAGUUCACGAGGAGGAGGUUUAUCGAAUUUUCGGCGGUUGCCUCCAAA [G32C A64U]	< 1e-05	< 1e-05	< 1e-05	< 1e-05
AUAAAAGCGCCAGAACUACAGAAAUGUAGUUCACGAGAAGGAGGUUUAUGGAAUUUUCGGCGGAUGCCUCCAAA [G32C G38A C50G]	0.000119 ± 3e-05	0.000156 ± 5.3e-05		
AUAAAAGCGCCAGAACUACAGAAAUGUAGUUCACGAGGAGGAGAUUUUUCGAAUUUUCGGCGGAUGCCUCCAAA [G32C G44A A48U]	< 1e-05	< 1e-05	< 1e-05	
